In the RNAGym collection of RNA variant scans (doi:10.1093/nar/gkz1192) one finds self-cleavage data, which are given here for 167 variants.

The source gives no read counts; variants with many changes may rest on few reads.

First the molecules themselves.
B1: CPEB3 Ribozyme (parent)
chain: UAACAGGGGGCCACAGCAGAAGCGUUCACGUCGCAGCCCCUGUCAGAUUCUGGUGAAUCUGCGAAUUCUGCUGUAUAUCUC

The series covers variants of B1. Briefly: self-cleavage, relative activity (ratio to wild type); higher = more cleavage; in vitro, sequencing. Put shortly:
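For each CPEB3 ribozyme variant, relative activity is its cleaved/total read fraction divided by the unmutated ribozyme's. Barcoded error-prone PCR libraries were transcribed by T7 RNA polymerase (5 hours, 37°C) and held in DNase I for 15 min before an EDTA stop, with cleavage occurring throughout. Template-switching reverse transcription and Illumina sequencing were used to read the RNAs. A 5-read minimum applied, and results are the mean of three batches.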
Take A28C U31A U80A: the self-cleavage turned out to be 0.23. For C27U A28U U41A U43C U69A the value was 0.11; for A28C A35G A65G U67G, 0.25.

Turning to U26C U58G U80G, the self-cleavage stood at 0.06. For C27A C32U U41C U58G, the self-cleavage was 0.12. For the variant C27A G46C U48C A64G, the self-cleavage was determined as 0.14. As to A28G A45G G55A A56G, the self-cleavage came to 0.37. For C27U A28U U41A U43C the value was 0.18; for A28C U31C G33A, 0.19. Next, A28G A56G A57G U60C: 0.15; A28C C37A A75G: 0.15; U26G G36A U43C U66C: 0.09. Next, U26C U72C A75G: 0.78.

As for U26C U72C A75U, the self-cleavage amounted to 0.49. Take C27U C50A A57G A75G U80C: the self-cleavage was 0.05. Consider A28C A35U U51C U67A, for which the self-cleavage turned out to be 0.14. A28C A35U U69C C71G: the self-cleavage was found to be 0.11. Next, U26G U48C A56G G61A U72C: 0.03; C27A C29G U41C G52A A56G U66C: 0.09. As to C27A C37U U41A, the self-cleavage turned out to be 0. Next, A28C C29A C34A U54C A56U: 0.34. For A28G A35G A64G U72C A75G U80C, the self-cleavage came out at 1.04. Consider U26C U60A U80C, for which the self-cleavage is 0.53. For C27A A28G U31A the value was 0.06; for C27A A35U U48C U74C, 0.12. In the case of A28G A35U U43C A56G, the self-cleavage is 0.15. As for C27U C37U G63U U66C U72A, the self-cleavage stood at 0.07. As for C27U A57G U60A U78C U80C, the self-cleavage was found to be 0.14.

As for C27U G33A A35U A56U U60A U72C, the self-cleavage came out at 0.03. Next, U26C U69A U78A: 0.09. Consider U26C U69A U78C, for which the self-cleavage worked out at 0.42. Next, A28C U60A A64G U78C: 0.42; C27A A28G G42A U48A U72C: 0.2. For the variant U26G A45G U54A A56G U72C, the self-cleavage is 0.05.

On to A28C U41A A56U G63U A75G, for which the self-cleavage amounted to 0.16. Next, A28G A56U U76C: 0.32; U26G A57G U69A: 0.08. Turning to C27G C32A U72C C81U, the self-cleavage was found to be 0.22. A28C U41A U49A U69C U80A: the self-cleavage was determined as 0.19. Next, A28G A35U A64U U76C: 0.11; A28G A45G G55U: 0.18; C27U U54A A64G A65G U69A G73A: 0.04. With A28G A56U U60C, the self-cleavage was found to be 0.45. Consider C27U G30A U43A A45C U80C, for which the self-cleavage stood at 0.3. C27U A56U U58C: the self-cleavage worked out at 0.51.

With A28G A47G U66A, the self-cleavage is 0.26.

Regarding C27A A28G A56G U80C, the self-cleavage stood at 0.09. Take A28G A47G G55U U74C: the self-cleavage turned out to be 0.51. With C27G G52A U78A U80C, the self-cleavage was 0.14. Regarding C27U U31C G42A, the self-cleavage was found to be 0.76. For A28C U51C A65G the value was 0.17. Take A28G A35G U78C: the self-cleavage came to 1.12. Next, U26G A28U U31A U60C A64G U67A: 0; U26C U66C U78C: 0.2. As for U26C U66C U72G U80C, the self-cleavage came out at 0.11.

Regarding C27U A57G U72A, the self-cleavage was 0.27. On to A28C G36U U58C, for which the self-cleavage worked out at 0.09. For A28G A45C U69C, the self-cleavage came to 0.07. Take C27U A64G G70C: the self-cleavage came out at 0.13. Regarding U26G A28G U31C C71A, the self-cleavage worked out at 0.21. As for A28G A35U U49A A56G A57G U58C, the self-cleavage came out at 0.13. For the variant U26C U60A A64G, the self-cleavage was 0.15. As for U26G C34U U49G C62U C68G, the self-cleavage stood at 0.04.

As to U26C U60C A65G U69A, the self-cleavage was determined as 0.15. As to C27A U54C A56G U58A, the self-cleavage came out at 0.13. Next, A28G A35U U48C U80C: 0.09; C27U U43C U60A A65G U78C: 0.09. For C27A A28U C32U A45C A56G U58C A77G the value was 0.07; for A28C A35U U41A U54C U60A, 0.13; for C27G A45G A57G, 0.16. Turning to U26G A64G U67A, the self-cleavage was determined as 0.07. Regarding A28G A47G U54A A77U, the self-cleavage was 0.82. Consider A28G A47G U49A A57U U72C, for which the self-cleavage turned out to be 0.14. Turning to A28C U48C U51A, the self-cleavage came to 0.13.

Consider U26C U60A U69C, for which the self-cleavage is 0.17. Regarding C27U A35G A47G, the self-cleavage was 0.49. With A28G A47G U51A U80A, the self-cleavage was 0.66. In the case of A28C A35G U41A U43C U54A G63A U80C, the self-cleavage turned out to be 0.07. For the variant C27U C39U A57U U66C, the self-cleavage was 0.09. For C27G A45G A64U U78A, the self-cleavage amounted to 0.08. In the case of A28C A45G U78A, the self-cleavage came out at 0.21. As for A28G A35G U49C G61A U76A U78C, the self-cleavage is 0.07. For U26G G33C U49G U60A A65G U69A U72C the value was 0.04. Consider U26C U74C U80C, for which the self-cleavage was 0.9. Regarding U26C U74C U80A, the self-cleavage was determined as 0.75. As for A28C U51C U80C, the self-cleavage was determined as 0.67. As for U26C U58G U69A U72G, the self-cleavage came to 0.16. For C27A U48C U67C the value was 0.07; for A28C U54C U69A U72A, 0.06. For A28G A35G A45G A65C C71A the value was 0.14.

On to C27A U31A A47G, for which the self-cleavage was 0.13. For C27U G36A U74A, the self-cleavage was found to be 0.08. Regarding A28G A47G U58C U78A, the self-cleavage stood at 0.9. On to U26C U60A A75G, for which the self-cleavage worked out at 0.15. With A28C U41C U43A, the self-cleavage turned out to be 0.18. Take A28G A45U U74C: the self-cleavage turned out to be 0.38. As for U26G A35U U43C A47G, the self-cleavage amounted to 0.32. For A28G A35G G53A the value was 1.19; for A28G A45G A47G, 0.29; for A28G A35G U43C U78A, 1.13. For the variant C27A G30A A47G, the self-cleavage turned out to be 0.1. For U26G U48A A75U, the self-cleavage amounted to 0.2. C27A A28G U78C: the self-cleavage was determined as 0.17. For A28C C40G A45C A47G U48G, the self-cleavage worked out at 0.06. On to A28G A45U U48C, for which the self-cleavage worked out at 0.09. Next, C27G U51A U67C: 0.15; A28C G63U U72C: 0.59; C27U U54C U80A: 0.25. For the variant A28G A47G U49C A65G U69A, the self-cleavage is 0.07. As for A28C U41G A45G U60A, the self-cleavage was found to be 0.24. In the case of A28G A45G U48C U51A A65U A77U U80C, the self-cleavage amounted to 0.05. With U26G U43C U49C A65G, the self-cleavage was determined as 0.15. In the case of C27U A35U C62G U66C U80C, the self-cleavage was determined as 0.21. C27A U31A U67C U74C: the self-cleavage stood at 0.14. Turning to C27U U41A A47G A57C U76C, the self-cleavage was 0.06. Next, A28G A47U U49C C62U A64G: 0.2; U26G U58C G63A U66C: 0.05; A28C U31A G33A A64G: 0.08. For U26G G53A U72C the value was 0.15; for C27G U31A U49C, 0.15. A28G A56U U60A U66C U69C U78C: the self-cleavage came to 0.11. As to C27U A57U U60C U69A U74C U78C, the self-cleavage came out at 0.03. On to A28G A35G A57C U58C U66C U78C, for which the self-cleavage came to 0.09. As to A28C U43C U58C, the self-cleavage worked out at 0.4. As for U26C U69C C71A U72C, the self-cleavage is 0.12. Consider C27G U51C A57U A64G U80C, for which the self-cleavage came out at 0.1. For A28C A35U A57U U67C G73U U78A the value was 0.04; for C27G U66A A75G U80A, 0.09; for C27A U48C U72A, 0.13. With C27U A56G C62G U80C, the self-cleavage stood at 0.24. For U26G A35G C71G the value was 0.33; for A28C U41C A64G A77G, 0.24. For C27A C32U U58C U76C the value was 0.05. C27U U51C U76C: the self-cleavage was 0.11. With A28G A35G U72A, the self-cleavage worked out at 0.74. For the variant A28G A57G C62A, the self-cleavage was found to be 0.1. As for A28C G33A A56U U66C U72A, the self-cleavage amounted to 0.1. With A28C G33C U51A A56U U60G, the self-cleavage turned out to be 0.06. Take A28C A35G A65G: the self-cleavage came out at 0.42. As for U26C U69C U72A U78C, the self-cleavage came out at 0.23. Next, C27G A28U G30U: 0.16; U26G A56U A64U: 0.11; C27A G63A U78C: 0.2. In the case of U26C U58C G61A, the self-cleavage was 0.07.

Regarding A28C U51C U74A, the self-cleavage was 0.69.

As for A28G A47G U51C A57G U67C U72C A77U, the self-cleavage was 0.06.

C27A C29A U54C: the self-cleavage was found to be 0.24. Take A28G A45G U67C: the self-cleavage turned out to be 0.16. Consider C27A C38U U41C U60C A64G, for which the self-cleavage is 0.08. Take C27G U54C U60A U80C: the self-cleavage amounted to 0.11. As for A28C C29U A45G U69C, the self-cleavage worked out at 0.06. Turning to A28C U41C U72A G73A, the self-cleavage came out at 0.37. Turning to A28G A35G A57U, the self-cleavage turned out to be 0.32. Turning to A28G A35G A57G, the self-cleavage is 1.01.

Consider U26G C68U U69C, for which the self-cleavage is 0.22. Regarding C27U A35G G63A, the self-cleavage worked out at 0.23.

Take A28G A45U C50U U66C U72C: the self-cleavage came to 0.01. With A28G A35U A65G, the self-cleavage is 0.14. For C27U A47G U58A A65G the value was 0.14. C27U U58A U60A A65C: the self-cleavage was 0.08. For the variant U26C U60C U69C, the self-cleavage was 0.32. A28G A47G U69C U72C: the self-cleavage is 0.09. For the variant C27U A28G A64G, the self-cleavage is 0.4. Turning to U26G U31A U54C A75G U78C, the self-cleavage worked out at 0.23. In the case of C27U U31C U69C U72A U80A, the self-cleavage was 0.33. Take C27A U66C U72C: the self-cleavage was 0.15.

As for C27U U54G U78A, the self-cleavage came to 0.21.
